Measured values: PubChem BioAssay AID360 (National Center for Advancing Translational Sciences (NCATS), 2006)
About 550 (1.1%) of roughly 48,000 compounds were called active. Roughly 4% stayed inconclusive and do not appear here. No stated cut-off is given here; in the data, active means potency below about 15 µM; inconclusive means mostly about 16 µM to 33 µM; inactive means weaker than that. This is one part of the list.

molecular target: Lysosomal acid glucosylceramidase (Homo sapiens) (UniProt P04062); assay: Glucocerebrosidase; conditions: purified enzyme, resorufin glucoside fluorescence (screen aimed at inhibitors), 20 min; series mostly up to 77 µM;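 further: the screen sought inhibitors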
Sequence of UniProt P04062 (P04062 whole entry, looked up): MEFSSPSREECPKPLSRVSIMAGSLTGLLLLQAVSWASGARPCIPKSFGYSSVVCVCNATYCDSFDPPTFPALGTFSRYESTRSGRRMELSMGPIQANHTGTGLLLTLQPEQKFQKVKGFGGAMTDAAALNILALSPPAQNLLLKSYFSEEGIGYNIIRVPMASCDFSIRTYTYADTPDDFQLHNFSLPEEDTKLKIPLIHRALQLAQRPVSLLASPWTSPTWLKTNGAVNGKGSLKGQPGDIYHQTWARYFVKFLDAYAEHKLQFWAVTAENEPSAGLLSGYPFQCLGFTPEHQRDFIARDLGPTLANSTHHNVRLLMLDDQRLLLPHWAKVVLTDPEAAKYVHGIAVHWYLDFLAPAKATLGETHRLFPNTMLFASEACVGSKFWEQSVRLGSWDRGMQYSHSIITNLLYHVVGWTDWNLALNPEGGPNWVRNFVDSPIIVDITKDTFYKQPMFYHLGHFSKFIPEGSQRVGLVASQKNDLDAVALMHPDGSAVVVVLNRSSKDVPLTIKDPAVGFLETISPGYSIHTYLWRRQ
Outline: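 Compounds titrated against 0.2 nM normal enzyme, 30 uM resorufin beta-D-glucopyranoside substrate, citrate/phosphate buffer with taurocholate and tween-20, pH 5.9. Reaction ran 20 min at room temperature; fluorescence (Ex 548/Em 600) gave AC50.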
Potency means the concentration at half of the fitted maximal effect.

Potency, inactive:
Nc1c(C(=O)Nc2ccc(F)cc2)sc2nc(-c3ccco3)ccc12 > 76.9 µM
C=CCSC1=C(C#N)C(c2ccccc2OCC)CC(=O)N1 (stereo not drawn) > 76.9 µM
COc1ccc(CCN2CC3=C(C2=O)C(c2ccccc2)NC(=O)N3C)cc1OC (stereo not drawn) > 76.9 µM
O=C(O)c1ccc(CNc2ccccc2C(=O)O)cc1 > 76.9 µM
O=C1CCCc2c1cc(C(=O)Nc1ccc(Cl)cn1)c(=O)n2-c1ccccc1 > 76.9 µM
O=C(CCc1ccc(S(=O)(=O)N2CCOCC2)cc1)OCc1nc2ccccc2s1 > 76.9 µM
Cc1ccccc1NC(=O)CCN1CCCCCC1 > 76.9 µM
COc1ccc(CN(C(=O)c2ccco2)C2CC(C)N(C)CC2C)cc1 (stereo not drawn) > 76.9 µM
CN(C)c1ccc(-c2nn3c(-c4cccnc4)nnc3s2)cc1 > 76.9 µM
COC(=O)C1=CN(C2CC2)C=C(C(=O)OC)C1c1ccccc1OC > 76.9 µM
O=C(CSc1ncnc2ccccc12)Nc1ccc(N2CCOCC2)cc1 > 76.9 µM
CNC(=O)CCn1nc(-c2ccc(Cl)cc2)c2ccccc2c1=O > 76.9 µM
COc1ccc(N2C(=O)CCC(C(=O)NCCN3CCOCC3)C2c2ccc(OC)c(OC)c2)cc1 (stereo not drawn) > 76.9 µM
CCOC(=O)Cc1csc(NC(=O)CSc2nnc(-c3ccc(OC)cc3)n2C)n1 > 76.9 µM
COc1ccc(NC(=O)CCN2CCCCC2)cc1 > 76.9 µM
CCCC(c1nnnn1Cc1cccs1)N1CCN(c2ccc(OC)cc2)CC1 (stereo not drawn) > 76.9 µM
CCOC(=O)N1CCC(NS(=O)(=O)c2ccc3c(c2)OCC(=O)N3)CC1 > 76.9 µM
O=C(c1ccc(F)cc1)C1CCN(C(=O)N2CCOCC2)CC1 > 76.9 µM
CCN(CC(=O)NC1CCCCC1)S(=O)(=O)c1ccc(Cl)cc1 > 76.9 µM
Cc1ccc(CN2C(=O)CCC2C(=O)NCc2ccc(F)cc2)cc1 (stereo not drawn) > 76.9 µM
Cc1cc(-c2nnc3n2N=C(c2ccc(-c4ccccc4)cc2)CS3)n[nH]1
COc1ccc(NC(=O)C(CCS(C)(=O)=O)NC(C)=O)cc1 (stereo not drawn) > 76.9 µM
COC(=O)c1cc(NCc2ccccc2F)ccc1N1CCOCC1 > 76.9 µM
Cn1nc(SCC(=O)O)sc1=S > 76.9 µM
O=C(CSc1ncnc2c1oc1ccccc12)Nc1cccc(Cl)c1 > 76.9 µM
COc1ccc(Nc2nc(N)nc(C(F)(F)F)n2)c(OC)c1 > 76.9 µM
CC(C)(C)OC(=O)NCC(=O)N1CCC(C(=O)O)CC1 > 76.9 µM
CCOc1ccc(CNc2ccc(N3CCCC3)cc2)cc1 > 76.9 µM
O=C(NCc1ccc2c(c1)OCO2)C1CC(=O)N(C2CCCCCC2)C1 (stereo not drawn) > 76.9 µM
Cc1cc(Oc2ccccc2)nc(-c2ccccc2O)n1 > 76.9 µM
CCOC(=O)C1CCN(C(=O)CCNC(=O)Cn2ccc3ccccc3c2=O)CC1 > 76.9 µM
C=CCn1c(SCC(=O)N2CCCC2)nc2cc(C(=O)NCC3CCCO3)ccc2c1=O (stereo not drawn) > 76.9 µM
CCc1nc(N2CCCCC2C)c2oc3ccccc3c2n1 (stereo not drawn) > 76.9 µM
O=C(CCS(=O)(=O)c1cccc2nonc12)N1CCCc2ccccc21 > 76.9 µM
O=C(CCN1C(=O)C2CC=C(Cl)CC2C1=O)N1CCCCC1 (stereo not drawn) > 76.9 µM
Cc1cc(C)nc(SCCS(=O)Cc2ccc(Cl)cc2)n1 (stereo not drawn) > 76.9 µM
Cc1ccc(CN(C)C(=O)c2ccccc2Oc2ccccc2)o1 > 76.9 µM
CCC1(CC)C(=O)NC(=O)NC1=NCCc1ccc(O)cc1 > 76.9 µM
CCOC(=O)c1cc(OC(=O)c2cccnc2)n(-c2ccccc2)n1 > 76.9 µM
CCC(C)OC(=O)C1=C(C)NC(=O)CC1c1ccccc1OC (stereo not drawn) > 76.9 µM
Cc1onc(-c2c(F)cccc2Cl)c1C(=O)NCCCN1CCOCC1 > 76.9 µM
COc1ccc(N2C(=O)CC(Cc3ccccc3)C2=O)cc1 (stereo not drawn) > 76.9 µM
COc1ccc(-c2nc(N3CCCC3)[nH]c(=O)c2C#N)cc1 > 76.9 µM
Cc1cccc(NC(=O)c2cc(NC(=O)c3ccco3)ccc2N2CCCCC2)c1 > 76.9 µM
CC(=O)Nn1c(-c2ccccc2)cc2ccccc21 > 76.9 µM
O=C(NCc1ccc2c(c1)OCO2)c1cccc(Cl)c1 > 76.9 µM
CC(=O)Nc1ccc(S(=O)(=O)N2CCCc3ccccc32)cc1 > 76.9 µM
COCCSc1nnc(NC(=O)Cc2cccs2)s1 > 76.9 µM
COc1ccccc1NC(=O)N1CCN(c2cc(-c3ccccc3)nc3ncnn23)CC1 > 76.9 µM
CCCCn1c(SCC(=O)Nc2cc(C)on2)nc2ccsc2c1=O > 76.9 µM
CC1CCN(Cc2nc3c(c(=O)n(C)c(=O)n3C)n2CCCc2ccccc2)CC1 > 76.9 µM
CCOC(=O)C1(C)NC(c2ccc(N(C)C)cc2)C2C(=O)N(CC)C(=O)C21 (stereo not drawn) > 76.9 µM
COc1cccc(-c2cc(C(=O)NCCc3ccccc3)no2)c1 > 76.9 µM
CCNC(=O)N1c2ccc(OCC)cc2C(C)=CC1(C)C > 76.9 µM
COc1ccc(Nc2ncc3c(n2)CC(c2ccccc2)CC3=O)cc1 (stereo not drawn) > 76.9 µM
Cc1ccc(C2NC(=O)c3ccccc3N2)s1 (stereo not drawn) > 76.9 µM
Cc1ccc(C2NC(=O)NC3=C2CCc2ccccc23)cc1 (stereo not drawn) > 76.9 µM
Cc1ccc(S(=O)(=O)Nc2nc3ccccc3nc2NCc2ccco2)cc1 > 76.9 µM
Cc1nn(CCC#N)c2nc(C(F)(F)F)[nH]c(=O)c12 > 76.9 µM
O=C(CCn1c(=O)sc2ccccc21)Nc1ccon1 > 76.9 µM
O=C(Nc1nnc(CC2=CCCCC2)s1)c1cccs1 > 76.9 µM
O=C(O)CSc1sc(=S)sc1SCC(=O)O > 76.9 µM
O=C(CSc1ncn(-c2ccccc2)n1)N1CCN(c2ccccc2)CC1 > 76.9 µM
CCCCN(Cc1cc2cc(OC)ccc2[nH]c1=O)C(=O)c1ccccn1 > 76.9 µM
COC(=O)CSc1nnc(CNC(=O)c2ccco2)n1-c1ccc(F)cc1 > 76.9 µM
O=S(=O)(CCOc1ccccc1)c1nc2ccccc2[nH]1 > 76.9 µM
CC(=O)Nc1nc(N2C(=O)c3ccccc3C2=O)n(-c2ccccc2)n1 > 76.9 µM
CCOc1ccc(-c2[nH]nc3c2C(c2cccnc2)C(C#N)=C(N)O3)cc1 (stereo not drawn) > 76.9 µM
CCN(CC)C(=O)N1CCN(C(=O)c2ccc(C)cn2)CC1 > 76.9 µM
COc1cccc(N2CC34C=CC(O3)C(C(=O)O)C4C2=O)c1 (stereo not drawn) > 76.9 µM
Cc1cc(N2CCOCC2)cc(C)[n+]1[O-] > 76.9 µM
C#CCN1C(=O)C2C(C(=O)NC)C3C=CC2(O3)C1C(=O)NCc1ccc(OC)cc1 (stereo not drawn) > 76.9 µM
O=C(CCn1c(=O)sc2ccccc21)Nc1nccs1 > 76.9 µM
COc1ccc2nc(SCC(=O)N3CCNC3=O)[nH]c2c1 > 76.9 µM
CC1CCN(C(c2ccc(N(C)C)cc2)c2nnnn2C(C)(C)C)CC1 (stereo not drawn) > 76.9 µM
Cc1nn2c(-c3ccccc3)c(-c3ccccc3)nc2[nH]c1=O
CN(Cc1ccco1)C(=O)c1ccc(N2CCCC2=O)cc1 > 76.9 µM
CCc1c(C#N)c(SCc2c(C)noc2C)nc2c1C(=O)CC(C)(C)C2 > 76.9 µM
O=C(CSc1ncccn1)NCc1ccc(F)cc1 > 76.9 µM
O=C(Cn1nc(C(F)(F)F)c2c1CCCC2)Nc1ccc2c(c1)OCO2 > 76.9 µM
N=c1c(C(=O)NCc2ccccc2)cc2c(=O)n3ccccc3nc2n1CCCN1CCOCC1 > 76.9 µM
CC1CN(S(=O)(=O)c2cccs2)CC(C)O1 (stereo not drawn) > 76.9 µM
O=c1c2c(nc3nc(SCc4ccccc4)[nH]n13)CCC2 > 76.9 µM
CCc1nc2nc(C)cc(Nc3cccc(C(F)(F)F)c3)n2n1 > 76.9 µM
COCCOc1nc2c(c(=O)n(C)c(=O)n2C)n1CCc1ccccc1 > 76.9 µM
COC(=O)c1cc2c(=O)n3ccccc3nc2n(C)c1=N > 76.9 µM
O=S(=O)(NCCOC12CC3CC(CC(C3)C1)C2)c1cccc2nsnc12 > 76.9 µM
Cc1cc(=O)n2nc(N3CCC(C(=O)NC4CCCc5ccccc54)CC3)sc2n1 (stereo not drawn) > 76.9 µM
CC1c2[nH]c3ccccc3c2CCN1C(=O)Nc1ccccc1 (stereo not drawn) > 76.9 µM
Brc1cc(Br)c2ncnc(N3CCCCC3)c2c1 > 76.9 µM
CCOc1ccc(CN(C(=O)c2ccco2)C2CCS(=O)(=O)C2)cc1 (stereo not drawn) > 76.9 µM
COc1ccc(NC(=O)CSc2nc3c(c(=O)n2-c2ccc(C)cc2)SCC3)c(OC)c1 > 76.9 µM
COCCn1c(SCc2nc3ccccc3s2)nc2ccccc21 > 76.9 µM
